Measurements from article PMC12820563.
This is one part of the list. The list includes weakly bound sequences.

Target: T1, MBP-FoxP3dN (UniProt Q99JB6)
T1 sequence: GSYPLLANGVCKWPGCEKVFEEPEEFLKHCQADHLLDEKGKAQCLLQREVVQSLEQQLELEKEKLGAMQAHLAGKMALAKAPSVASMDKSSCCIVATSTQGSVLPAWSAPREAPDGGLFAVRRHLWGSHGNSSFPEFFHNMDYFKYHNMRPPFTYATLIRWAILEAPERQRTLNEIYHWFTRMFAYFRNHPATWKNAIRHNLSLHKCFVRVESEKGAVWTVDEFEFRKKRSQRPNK
Assay: PD-seq (MBP pull-down with sequencing)
Conditions: 20 mM Tris-HCl pH 7.5, 100 mM NaCl, 1.5 mM MgCl2, 0.4 uM protein, 0.1 uM dsDNA library, 30 min, room temperature, amylose pull-down; high values mean tight binding; double strand, one strand shown

Row | Sequence | binding signal (RPM ratio (pull-down/input))
1 | GATGATTGTTCTCCCAGCTGATGAATTGGTTACATCGAGTAAACAAATTTTCCTAATCTTTCTGTTCAAGCGCCATCTAC | 0.681
2 | GATGATTGTTCTCCCAGCTGATGAATTTAAAGCTTCGAGTAAACAAATTTTCCTAATCTTTCTGTTCAAGCGCCATCTAC | 0.325
3 | GATGATTGTTCTCCCAGCTGATGAATTCATCGAATCGAGTAAACAAATTTTCCTAATCTTTCTGTTCAAGCGCCATCTAC | 0.299
4 | GATGATTGTTCTCCCAGCTGATGAATTGGCAGTCTCGAGTAAACAAATTTTCCTAATCTTTCTGTTCAAGCGCCATCTAC | 0.485
5 | GATGATTGTTCTCCCAGCTGATGAATTCTAGAAGTCGAGTAAACAAATTTTCCTAATCTTTCTGTTCAAGCGCCATCTAC | 0.2
6 | GATGATTGTTCTCCCAGCTGATGAATTAGGAGTCTCGAGTAAACAAATTTTCCTAATCTTTCTGTTCAAGCGCCATCTAC | 1.01
7 | GATGATTGTTCTCCCAGCTGATGAATTGGCCGCCTCGAGTAAACAAATTTTCCTAATCTTTCTGTTCAAGCGCCATCTAC | 0.56
8 | GATGATTGTTCTCCCAGCTGATGAATTCAAGTAATCGAGTAAACAAATTTTCCTAATCTTTCTGTTCAAGCGCCATCTAC | 0.474
9 | GATGATTGTTCTCCCAGCTGATGAATTAAGGGTCTCGAGTAAACAAATTTTCCTAATCTTTCTGTTCAAGCGCCATCTAC | 0.587
10 | GATGATTGTTCTCCCAGCTGATGAATTCGTAAATTCGAGTAAACAAATTTTCCTAATCTTTCTGTTCAAGCGCCATCTAC | 0.402
11 | GATGATTGTTCTCCCAGCTGATGAATTTACCGGGTCGAGTAAACAAATTTTCCTAATCTTTCTGTTCAAGCGCCATCTAC | 0.276
12 | GATGATTGTTCTCCCAGCTGATGAATTGACTGGTTCGAGTAAACAAATTTTCCTAATCTTTCTGTTCAAGCGCCATCTAC | 0.364
13 | GATGATTGTTCTCCCAGCTGATGAATTTACAACATCGAGTAAACAAATTTTCCTAATCTTTCTGTTCAAGCGCCATCTAC | 1.26
14 | GATGATTGTTCTCCCAGCTGATGAATTGTTGCATTCGAGTAAACAAATTTTCCTAATCTTTCTGTTCAAGCGCCATCTAC | 7.63
15 | GATGATTGTTCTCCCAGCTGATGAATTCTGCTCTTCGAGTAAACAAATTTTCCTAATCTTTCTGTTCAAGCGCCATCTAC | 0.557
16 | GATGATTGTTCTCCCAGCTGATGAATTAATACTTTCGAGTAAACAAATTTTCCTAATCTTTCTGTTCAAGCGCCATCTAC | 0.478
17 | GATGATTGTTCTCCCAGCTGATGAATTATCTCTTTCGAGTAAACAAATTTTCCTAATCTTTCTGTTCAAGCGCCATCTAC | 0.302
18 | GATGATTGTTCTCCCAGCTGATGAATTTAGATCGTCGAGTAAACAAATTTTCCTAATCTTTCTGTTCAAGCGCCATCTAC | 0.458
19 | GATGATTGTTCTCCCAGCTGATGAATTGGACTTTTCGAGTAAACAAATTTTCCTAATCTTTCTGTTCAAGCGCCATCTAC | 0.377
20 | GATGATTGTTCTCCCAGCTGATGAATTGCCATAATCGAGTAAACAAATTTTCCTAATCTTTCTGTTCAAGCGCCATCTAC | 1.31
21 | GATGATTGTTCTCCCAGCTGATGAATTTCTCGTGTCGAGTAAACAAATTTTCCTAATCTTTCTGTTCAAGCGCCATCTAC | 0.36

Row | Sequence | binding signal (RPM ratio (pull-down/input))
22 | GATGATTGTTCTCCCAGCTGATGAATTACTTGGGTCGAGTAAACAAATTTTCCTAATCTTTCTGTTCAAGCGCCATCTAC | 0.314
23 | GATGATTGTTCTCCCAGCTGATGAATTCGTAGGGTCGAGTAAACAAATTTTCCTAATCTTTCTGTTCAAGCGCCATCTAC | 1.01
24 | GATGATTGTTCTCCCAGCTGATGAATTTAGCAAATCGAGTAAACAAATTTTCCTAATCTTTCTGTTCAAGCGCCATCTAC | 0.663
25 | GATGATTGTTCTCCCAGCTGATGAATTATGTCCATCGAGTAAACAAATTTTCCTAATCTTTCTGTTCAAGCGCCATCTAC | 0.939
26 | GATGATTGTTCTCCCAGCTGATGAATTTTGACGGTCGAGTAAACAAATTTTCCTAATCTTTCTGTTCAAGCGCCATCTAC | 0.301
27 | GATGATTGTTCTCCCAGCTGATGAATTAAAAAATTCGAGTAAACAAATTTTCCTAATCTTTCTGTTCAAGCGCCATCTAC | 0.209
28 | GATGATTGTTCTCCCAGCTGATGAATTGGGGTTTTCGAGTAAACAAATTTTCCTAATCTTTCTGTTCAAGCGCCATCTAC | 0.67
29 | GATGATTGTTCTCCCAGCTGATGAATTGCACGACTCGAGTAAACAAATTTTCCTAATCTTTCTGTTCAAGCGCCATCTAC | 0.622
30 | GATGATTGTTCTCCCAGCTGATGAATTTAATCGCTCGAGTAAACAAATTTTCCTAATCTTTCTGTTCAAGCGCCATCTAC | 0.362
31 | GATGATTGTTCTCCCAGCTGATGAATTATTCTCATCGAGTAAACAAATTTTCCTAATCTTTCTGTTCAAGCGCCATCTAC | 0.398
32 | GATGATTGTTCTCCCAGCTGATGAATTGTTAATGTCGAGTAAACAAATTTTCCTAATCTTTCTGTTCAAGCGCCATCTAC | 0.803
33 | GATGATTGTTCTCCCAGCTGATGAATTTTACGGCTCGAGTAAACAAATTTTCCTAATCTTTCTGTTCAAGCGCCATCTAC | 0.239
34 | GATGATTGTTCTCCCAGCTGATGAATTTTCCGTCTCGAGTAAACAAATTTTCCTAATCTTTCTGTTCAAGCGCCATCTAC | 0.292
35 | GATGATTGTTCTCCCAGCTGATGAATTACGGTACTCGAGTAAACAAATTTTCCTAATCTTTCTGTTCAAGCGCCATCTAC | 0.633
36 | GATGATTGTTCTCCCAGCTGATGAATTCTGGGGATCGAGTAAACAAATTTTCCTAATCTTTCTGTTCAAGCGCCATCTAC | 0.291
37 | GATGATTGTTCTCCCAGCTGATGAATTCTGAGTTTCGAGTAAACAAATTTTCCTAATCTTTCTGTTCAAGCGCCATCTAC | 1.48
38 | GATGATTGTTCTCCCAGCTGATGAATTTTTTTGCTCGAGTAAACAAATTTTCCTAATCTTTCTGTTCAAGCGCCATCTAC | 0.366
39 | GATGATTGTTCTCCCAGCTGATGAATTCAAGACATCGAGTAAACAAATTTTCCTAATCTTTCTGTTCAAGCGCCATCTAC | 0.33
40 | GATGATTGTTCTCCCAGCTGATGAATTCGTGCAATCGAGTAAACAAATTTTCCTAATCTTTCTGTTCAAGCGCCATCTAC | 3.15
41 | GATGATTGTTCTCCCAGCTGATGAATTCCCATCTTCGAGTAAACAAATTTTCCTAATCTTTCTGTTCAAGCGCCATCTAC | 0.307
42 | GATGATTGTTCTCCCAGCTGATGAATTACAATGTTCGAGTAAACAAATTTTCCTAATCTTTCTGTTCAAGCGCCATCTAC | 0.908

Row | Sequence | binding signal (RPM ratio (pull-down/input))
43 | GATGATTGTTCTCCCAGCTGATGAATTCAGGCTCTCGAGTAAACAAATTTTCCTAATCTTTCTGTTCAAGCGCCATCTAC | 0.404
44 | GATGATTGTTCTCCCAGCTGATGAATTGAAGTGGTCGAGTAAACAAATTTTCCTAATCTTTCTGTTCAAGCGCCATCTAC | 0.353
45 | GATGATTGTTCTCCCAGCTGATGAATTTGCAGTATCGAGTAAACAAATTTTCCTAATCTTTCTGTTCAAGCGCCATCTAC | 1.49
46 | GATGATTGTTCTCCCAGCTGATGAATTGCTTCTTTCGAGTAAACAAATTTTCCTAATCTTTCTGTTCAAGCGCCATCTAC | 0.656
47 | GATGATTGTTCTCCCAGCTGATGAATTTTGAGTGTCGAGTAAACAAATTTTCCTAATCTTTCTGTTCAAGCGCCATCTAC | 1.81
48 | GATGATTGTTCTCCCAGCTGATGAATTCGCGTTTTCGAGTAAACAAATTTTCCTAATCTTTCTGTTCAAGCGCCATCTAC | 1.2
49 | GATGATTGTTCTCCCAGCTGATGAATTGATCCTCTCGAGTAAACAAATTTTCCTAATCTTTCTGTTCAAGCGCCATCTAC | 0.287
50 | GATGATTGTTCTCCCAGCTGATGAATTTGATAGTTCGAGTAAACAAATTTTCCTAATCTTTCTGTTCAAGCGCCATCTAC | 3.99
51 | GATGATTGTTCTCCCAGCTGATGAATTCGCCCCTTCGAGTAAACAAATTTTCCTAATCTTTCTGTTCAAGCGCCATCTAC | 0.389
52 | GATGATTGTTCTCCCAGCTGATGAATTCGTAGTCTCGAGTAAACAAATTTTCCTAATCTTTCTGTTCAAGCGCCATCTAC | 1.07
53 | GATGATTGTTCTCCCAGCTGATGAATTTTAGCGATCGAGTAAACAAATTTTCCTAATCTTTCTGTTCAAGCGCCATCTAC | 0.522
54 | GATGATTGTTCTCCCAGCTGATGAATTGGAAGACTCGAGTAAACAAATTTTCCTAATCTTTCTGTTCAAGCGCCATCTAC | 0.219
55 | GATGATTGTTCTCCCAGCTGATGAATTGAGGTACTCGAGTAAACAAATTTTCCTAATCTTTCTGTTCAAGCGCCATCTAC | 0.549
56 | GATGATTGTTCTCCCAGCTGATGAATTACCGCCCTCGAGTAAACAAATTTTCCTAATCTTTCTGTTCAAGCGCCATCTAC | 0.552
57 | GATGATTGTTCTCCCAGCTGATGAATTGTGATTTTCGAGTAAACAAATTTTCCTAATCTTTCTGTTCAAGCGCCATCTAC | 2.75
58 | GATGATTGTTCTCCCAGCTGATGAATTTAGGCGGTCGAGTAAACAAATTTTCCTAATCTTTCTGTTCAAGCGCCATCTAC | 0.538
59 | GATGATTGTTCTCCCAGCTGATGAATTGACAGACTCGAGTAAACAAATTTTCCTAATCTTTCTGTTCAAGCGCCATCTAC | 0.347
60 | GATGATTGTTCTCCCAGCTGATGAATTCGGTTGCTCGAGTAAACAAATTTTCCTAATCTTTCTGTTCAAGCGCCATCTAC | 1.66
61 | GATGATTGTTCTCCCAGCTGATGAATTGGTTTAATCGAGTAAACAAATTTTCCTAATCTTTCTGTTCAAGCGCCATCTAC | 0.677
62 | GATGATTGTTCTCCCAGCTGATGAATTACCAATCTCGAGTAAACAAATTTTCCTAATCTTTCTGTTCAAGCGCCATCTAC | 0.415
63 | GATGATTGTTCTCCCAGCTGATGAATTAAAATGGTCGAGTAAACAAATTTTCCTAATCTTTCTGTTCAAGCGCCATCTAC | 0.25
